# Results from PubChem BioAssay AID463173 (ICCB-Longwood Screening Facility, Harvard Medical School, 2010).
# Hit rate of the full screen: of about 52,000 compounds, about 1,700 (3.3%) were called active. Rule as the data show it: active = survival mostly below about 52% (no sharp cut-off); inactive = mostly above about 56%. This is one part of the list.
# System: Wild type
# Experiment: growth inhibition of S. aureus wild type versus tarO mutant, primary screen, teichoic acid synthesis inhibitors, RN4220, OD600 (AID 463173)
# Details: S. aureus RN4220 wild type/DeltatarO growth, OD600, 18 h, hits give low values, screened at 18.75 µg/mL (by protocol)
row,Structure (SMILES),survival
1,COc1cccc(NC(=O)CSc2nc(=O)n(Cc3cccnc3)c3c2CCC3)c1,inactive: 65%
2,Cc1ccc2nc3c(cc(C#N)c(=O)n3-c3nnc(SCc4ccc(F)cc4)s3)c(=O)n2c1,inactive: 92%
3,Cc1ccc(Sc2ccc(N3CCCC(C(=O)Nc4ccc(F)c(Cl)c4)C3)nn2)cc1 (stereo not drawn),inactive: 71%
4,COc1ccc(CCNC(=O)CCCCn2c(=O)c3ccccc3n(Cc3cc(C)ccc3C)c2=O)cc1OC,inactive: 92%
5,CCOc1ccc(CNC(=O)c2ccc3c(c2)c(C)c(C)n3C)cc1,inactive: 94%
6,CCCN(CCC)C(=O)Cn1c(=O)n(-c2ccc(OC)cc2OC)c(=O)c2c3c(sc21)CCC3,inactive: 84%
7,O=C(CN(Cc1ccco1)C(=O)Cn1nnc(-c2cccs2)n1)NCc1ccccc1,inactive: 110%
8,COc1ccc(OCC(=O)Nc2ccc(-c3nc4cc(Cl)ccc4o3)cc2)cc1,inactive: 159%
9,CCOc1ccccc1NC(=O)Cn1c(=O)n(CC(=O)NCc2ccccc2Cl)c(=O)c2sccc21,inactive: 153%
10,COc1ccccc1Nc1nc(NCC2CCCO2)c2ccccc2n1 (stereo not drawn),inactive: 105%
11,CCOc1ccc(-n2c(SCc3ccccc3)nc3c([nH]c4ccccc43)c2=O)cc1,inactive: 73%
12,CCCn1c2ccccc2c2cnn(CC(=O)NCC3CCN(Cc4ccc(C)cc4)CC3)c(=O)c21,active: -1%
13,Fc1ccc(-c2noc3ncnc(NCCc4ccc(Cl)cc4)c23)cc1,inactive: 83%
14,COc1cccc(N2CC(NC(=O)c3cc4ccccc4o3)CC2=O)c1 (stereo not drawn),inactive: 69%
15,COc1ccc(Nc2cc(C)c3cc(NC(=O)c4ccccc4Cl)ccc3n2)cc1,inactive: 69%
16,CC(C)c1ccc2c(c1)NC(c1ccc(F)cc1)=NC(c1cccs1)=N2,inactive: 71%
17,CC(C)=C(C#N)c1nc2ccccc2s1,inactive: 126%
18,Cc1cc(C(F)F)n2ncc(C(=O)O)c2n1,inactive: 92%
19,Cc1ccc(NC(=O)Nc2nnc(SCC(=O)N3CCCCC3)s2)cc1,inactive: 77%
20,Cc1cc(Nc2cccc(C(F)(F)F)c2)nc2ccc(NC(=O)Cc3ccc(Cl)cc3)cc12,inactive: 78%
21,Cc1cccc(C(=O)NCCc2nc3ccccc3n2Cc2ccccc2Cl)c1,inactive: 106%
22,Cc1nc2ncnn2c(C)c1CCC(=O)N1CCN(c2ccc(F)cc2)CC1,inactive: 72%

row,Structure (SMILES),survival
1,COc1cccc(CNC(=O)N2CCc3c(sc4c3CCCC4)C2c2ccc(F)cc2)c1 (stereo not drawn),inactive: 75%
2,Cc1cc(C)c(C#N)c(N2CCN(c3cccc(C)c3C)CC2)n1,inactive: 109%
3,O=C(CSc1nnc(-c2ccncc2)n1-c1ccccc1)Nc1ccc(F)cc1,inactive: 72%
4,CCOc1ccccc1CNC(=O)CSc1n[nH]c(-c2ccccc2)n1,inactive: 78%
5,CCOC(=O)CCc1c(C)nc2c(-c3ccccc3)c(C)[nH]n2c1=O,inactive: 74%
6,COc1ccc(OC)c(C2C(C(=O)Nc3ccc(C)cc3C)=C(C)Nc3c(C(=O)Nc4ccc(F)cc4)cnn32)c1 (stereo not drawn),inactive: 70%
7,CCn1c2c(c(=O)n3ncc(C(=O)N4CCN(c5ccccc5)CC4)c13)CN(Cc1ccc(OC)cc1)CC2,inactive: 133%
8,Cc1ccccc1OCCCC(=O)NCc1ccco1,inactive: 102%
9,Cc1cc(=O)n(Cc2cccc(Cl)c2)c2c1c(C)nn2C,inactive: 66%
10,CC(C)c1noc(-c2ccccc2OCC(=O)Nc2ccc([N+](=O)[O-])cc2)n1,inactive: 81%
11,COc1ccc(Cl)cc1NC(=O)CSc1nc(=O)n(Cc2ccco2)c2c1CCC2,inactive: 67%
12,O=C(CN1CCOCC1)NCC1COc2ccccc2O1 (stereo not drawn),inactive: 120%
13,CCOC(=O)c1ccccc1NC(=O)c1cn(CC(C)C)c(=O)c2cc(OC)c(OC)cc12,inactive: 69%
14,Cc1ccc(OCC(=O)Nc2nnc(S(=O)(=O)N3CCc4ccccc43)s2)cc1,inactive: 24%
15,COc1ccc(N2CCN(S(=O)(=O)c3ccc(C4CCCCC4)cc3)CC2)cc1,inactive: 82%
16,Cc1ccc(-n2ncc3c(Nc4ccc(Oc5ccccc5)cc4)ncnc32)c(C)c1,inactive: 80%
17,COc1ccc(OC)c(-c2noc(CSc3nnc(-c4ccccc4)n3-c3ccccc3)n2)c1,inactive: 85%
18,COc1ccc(CCCc2nnc(SCC(=O)Nc3cc(F)ccc3C)o2)cc1,inactive: 74%
19,Fc1ccc(CNCCCSc2nnnn2-c2ccccc2)cc1,inactive: 108%
20,COc1ccc(Cn2c(C(=O)O)c(CNCc3ccc(OC)cc3OC)c3ccc(C)cc32)cc1,inactive: 51%
21,COc1ccc(NC(=O)CSCc2cc(=O)c3cc(C)ccc3[nH]2)cc1,inactive: 86%
22,CN(C(=O)CSc1nc2ccc(NC(=O)c3cccc(F)c3)cc2s1)c1ccccc1,inactive: 77%

row,Structure (SMILES),survival
1,CCOc1ccc(CNC(=O)c2ccc3c(Cl)c4c(nc3c2)CCCC4)cc1,inactive: 82%
2,CN(C)N1C(=O)/C(=C/c2cccs2)SC1=Nc1ccccc1,inactive: 116%
3,COc1cc(Cl)c(C)cc1NC(=O)CC1Oc2ccccc2NC1=O (stereo not drawn),inactive: 72%
4,Oc1ccc(-c2nnc(SCc3ccc(Cl)cc3)o2)cc1,inactive: 112%
5,CCNC(=O)CCCN1C(=O)CCn2nc(-c3cccn3C)cc21,inactive: 67%
6,O=C(c1cc2sccc2n1Cc1ccccc1)N1CCN(c2ccccc2F)CC1,inactive: 130%
7,COc1ccc(NC(=O)c2c(NCc3ccc(C)o3)sc3c2CCCCC3)c(OC)c1,inactive: 136%
8,COc1ccc(C(=O)Nc2ccc(-c3nc4ncccc4o3)cc2C)cc1Br,inactive: 60%
9,CCn1c(=O)c2cc(C(=O)Nc3cccc(C(F)(F)F)c3)sc2c2ccccc21,inactive: 75%
10,O=S(=O)(c1ccc(C2CCCCC2)cc1)N1CCN(c2cc(Cl)ccc2Cl)CC1,inactive: 80%
11,COc1ccc(-n2c(/C=C/c3cccc4ccccc34)nc3ccccc3c2=O)cc1OC,inactive: 72%
12,CCC(Sc1nc2nccnc2c(=O)n1Cc1ccccc1Cl)C(=O)NC1CCCCC1 (stereo not drawn),inactive: 100%
13,Cc1ccc2nc(NCc3ccccc3)c3nncn3c2c1,inactive: 87%
14,CCn1cc(C(=O)NCCc2ccc(Cl)cc2)c(=O)c2cc(S(=O)(=O)N(C)C3CCCCC3)ccc21,inactive: 88%
15,COc1ccc(CCNC(=O)c2cc3c(=O)n4cccc(C)c4nc3n2C)cc1,inactive: 83%
16,Cc1ccc(-c2csc(-c3c(N)c(C(=O)c4ccc5c(c4)OCO5)n4ccccc34)n2)cc1C,inactive: 104%
17,CCOc1ccc(C2C(=O)N(C3CCCCCC3)CC(=O)N2Cc2ccc(C)cc2)cc1OC (stereo not drawn),inactive: 72%
18,Cc1cccc(N(CC(=O)NCCc2ccccc2)S(=O)(=O)c2ccccc2)c1C,inactive: 72%
19,CCC(CC)C(=O)Nc1nnc(S(=O)(=O)N(C)c2cc(C)cc(C)c2)s1,inactive: 89%
20,COc1ccc2c(C)c(CCC(=O)NCc3cccc(Cl)c3)c(=O)oc2c1,inactive: 81%
21,Cc1cccc(CSCCNC(=O)C2CCN(S(=O)(=O)Cc3ccccc3)CC2)c1,inactive: 98%
22,O=C(C[n+]1ccccc1)Nc1ccccc1,inactive: 108%

row,Structure (SMILES),survival
1,COc1ccc(NC(=O)CC2Oc3ccc(C)cc3NC2=O)cc1Cl (stereo not drawn),inactive: 84%
2,Cc1cc(C)cc(-n2ccn(CC(=O)NCCc3ccccc3)c(=O)c2=O)c1,inactive: 83%
3,COc1cc2c(cc1OC)C(COc1ccc3c(C)cc(=O)oc3c1)N(C(=O)Cc1ccc(F)cc1)CC2 (stereo not drawn),inactive: 68%
4,COC(=O)c1cc(-c2cc(OC)c(OC)c(OC)c2)no1,inactive: 88%
5,CCOc1ccc(N(CC(=O)NCc2ccc(OC)cc2)S(=O)(=O)c2c(C)[nH]c(=O)[nH]c2=O)cc1,inactive: 79%
6,CCOC(=O)c1c(NC(C)=O)c2c3c(sc2n1Cc1c(C)cc(C)cc1C)CCCC3,inactive: 88%
7,COc1ccc(Cn2ccnc2SCC(=O)Nc2ccc3c(c2)OCCO3)cc1,inactive: 70%
8,Cc1ccc2c(c1)N(CC(=O)Nc1ccccc1C(F)(F)F)C(=O)c1cccnc1O2,inactive: 143%
9,COc1cccc(C(=O)N(Cc2cccc(F)c2)C2CCS(=O)(=O)C2)c1 (stereo not drawn),inactive: 87%
10,COCCNC(=S)N1CCC(NC(=O)NC23CC4CC(CC(C4)C2)C3)CC1,inactive: 102%
11,Cc1c(Cl)cccc1NC(=O)c1oc2ccc(S(=O)(=O)N3CCCCCC3)cc2c1C,inactive: 72%
12,O=C(Nc1cccc(F)c1)c1ccc2oc(=O)n(Cc3ccccc3)c2c1,inactive: 81%
13,COc1cccc(OC)c1C(=O)Nc1ccc(-c2nc3ncccc3o2)cc1,inactive: 88%
14,CCOC(=O)c1cc2c(=O)n3ccccc3nc2n(Cc2ccco2)c1=NC(=O)c1ccc(C(C)(C)C)cc1,inactive: 72%
15,Cc1ccc(Sc2ccc(N3CCC(C(=O)Nc4cc(C)cc(C)c4)CC3)nn2)cc1,inactive: 64%
16,Cc1ccc(C2CC(=O)n3nc(-c4ccc(Cl)cc4)nc3S2)cc1 (stereo not drawn),inactive: 99%
17,Cc1c(Cl)cccc1-n1ncc(C(=O)NCCN2CCN(C)CC2)c1C1CCN(C(=O)OC(C)(C)C)CC1,inactive: 78%
18,O=C(Cn1c(=O)n(-c2ccccc2)c(=O)c2c3c(sc21)CCC3)c1ccc(F)cc1,inactive: 76%
19,O=C(NCc1ccccc1)c1ccc2c(c1)N(Cc1ccccc1F)C(=O)c1ccccc1S2=O (stereo not drawn),inactive: 101%
20,COc1cccc(CN(C(=O)COc2ccc(Cl)c(C)c2)C2CCS(=O)(=O)C2)c1 (stereo not drawn),inactive: 78%
21,O=C(Nc1ccc(Cl)cc1)c1cnn2c1NC(c1ccccc1)=CC2c1ccccc1 (stereo not drawn),inactive: 45%
22,CCc1ccc(NC(=O)CSc2nc3c([nH]c4ccccc43)c(=O)n2-c2ccc(C)cc2)cc1,inactive: 159%
